This note sets out measurements from PMC11828465.

Sequences of proteins named here, by UniProt entry; tags and fusion partners are left off.
UniProt Q8TDX7: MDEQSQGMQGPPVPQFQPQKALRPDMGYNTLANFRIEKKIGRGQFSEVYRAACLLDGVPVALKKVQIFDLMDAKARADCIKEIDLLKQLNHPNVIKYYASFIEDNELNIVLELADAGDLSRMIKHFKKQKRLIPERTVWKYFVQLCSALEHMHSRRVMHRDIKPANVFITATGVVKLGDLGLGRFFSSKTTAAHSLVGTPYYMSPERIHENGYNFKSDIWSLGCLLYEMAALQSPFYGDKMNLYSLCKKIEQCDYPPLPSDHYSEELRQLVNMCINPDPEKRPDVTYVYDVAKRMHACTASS
UniProt Q9ES74: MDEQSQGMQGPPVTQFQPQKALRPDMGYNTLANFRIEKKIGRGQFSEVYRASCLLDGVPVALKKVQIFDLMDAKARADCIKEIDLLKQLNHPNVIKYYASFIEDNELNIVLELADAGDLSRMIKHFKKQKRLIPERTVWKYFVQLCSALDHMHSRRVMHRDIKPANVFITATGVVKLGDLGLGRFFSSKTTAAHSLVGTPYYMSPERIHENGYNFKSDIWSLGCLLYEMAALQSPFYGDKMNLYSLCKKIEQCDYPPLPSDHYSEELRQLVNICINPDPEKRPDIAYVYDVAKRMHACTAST
UniProt Q9Y4G2: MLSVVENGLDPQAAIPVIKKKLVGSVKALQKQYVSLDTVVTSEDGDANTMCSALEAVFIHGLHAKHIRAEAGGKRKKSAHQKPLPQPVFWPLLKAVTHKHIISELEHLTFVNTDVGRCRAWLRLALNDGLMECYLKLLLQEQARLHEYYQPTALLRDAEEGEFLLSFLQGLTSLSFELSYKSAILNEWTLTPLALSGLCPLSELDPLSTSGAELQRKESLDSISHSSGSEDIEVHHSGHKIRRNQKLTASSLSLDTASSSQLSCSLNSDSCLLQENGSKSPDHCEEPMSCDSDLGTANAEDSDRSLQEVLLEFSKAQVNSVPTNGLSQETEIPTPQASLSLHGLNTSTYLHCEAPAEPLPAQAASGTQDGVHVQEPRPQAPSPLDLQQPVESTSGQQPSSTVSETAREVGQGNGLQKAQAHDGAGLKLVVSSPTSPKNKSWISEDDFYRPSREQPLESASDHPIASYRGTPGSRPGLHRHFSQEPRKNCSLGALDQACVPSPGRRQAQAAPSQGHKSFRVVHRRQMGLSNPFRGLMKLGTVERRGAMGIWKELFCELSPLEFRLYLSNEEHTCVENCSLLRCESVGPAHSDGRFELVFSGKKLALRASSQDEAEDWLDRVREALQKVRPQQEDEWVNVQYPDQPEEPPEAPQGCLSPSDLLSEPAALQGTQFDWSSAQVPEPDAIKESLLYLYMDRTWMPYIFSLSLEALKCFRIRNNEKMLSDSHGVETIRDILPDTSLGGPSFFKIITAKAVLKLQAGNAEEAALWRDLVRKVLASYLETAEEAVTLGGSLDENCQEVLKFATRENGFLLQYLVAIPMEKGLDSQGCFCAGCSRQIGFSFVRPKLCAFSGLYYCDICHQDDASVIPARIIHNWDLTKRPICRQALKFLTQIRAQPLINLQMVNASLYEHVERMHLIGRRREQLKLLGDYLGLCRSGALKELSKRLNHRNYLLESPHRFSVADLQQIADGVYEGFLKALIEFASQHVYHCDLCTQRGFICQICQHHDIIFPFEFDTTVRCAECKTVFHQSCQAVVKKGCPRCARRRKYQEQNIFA
UniProt Q96NA2: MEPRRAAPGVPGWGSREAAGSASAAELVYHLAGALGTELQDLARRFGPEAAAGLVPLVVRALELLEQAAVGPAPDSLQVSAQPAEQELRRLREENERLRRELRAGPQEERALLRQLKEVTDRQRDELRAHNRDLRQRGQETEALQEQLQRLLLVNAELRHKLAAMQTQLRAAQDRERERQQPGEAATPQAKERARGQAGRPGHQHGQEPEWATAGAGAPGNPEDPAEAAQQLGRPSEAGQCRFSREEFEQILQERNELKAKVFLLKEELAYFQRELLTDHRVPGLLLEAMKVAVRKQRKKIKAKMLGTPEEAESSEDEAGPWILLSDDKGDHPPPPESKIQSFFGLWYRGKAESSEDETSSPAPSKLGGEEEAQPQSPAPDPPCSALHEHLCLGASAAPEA

No constants are given. Whether binding was seen depends on the method and setting. In cells and extracts the contact can be indirect. Some results given as binding are weak or reduced against the parent protein; the word gives no strength. For some of these results: Tags and fused reporters may be left off the sequences shown.

One test addresses RlucII–Rab7A^C205,207S (UniProt P51149). The test can be described thus: FRET or BRET; BRET titration curves in live wild-type HEK293 cells: constant amount of the RlucII fusion, increasing amounts of the GFP10 fusion; 48 h post transfection; cells in PBS, coelenterazine 400a 5 µM, read after 2 min at RT; BRET50 from BRETnet against GFP10 fluorescence/RlucII …. A general note: Bioluminescence resonance energy transfer reports proximity on the nanometre scale.

The next test deals with T1, CLN6–RlucII (UniProt Q3U466).
T1 sequence: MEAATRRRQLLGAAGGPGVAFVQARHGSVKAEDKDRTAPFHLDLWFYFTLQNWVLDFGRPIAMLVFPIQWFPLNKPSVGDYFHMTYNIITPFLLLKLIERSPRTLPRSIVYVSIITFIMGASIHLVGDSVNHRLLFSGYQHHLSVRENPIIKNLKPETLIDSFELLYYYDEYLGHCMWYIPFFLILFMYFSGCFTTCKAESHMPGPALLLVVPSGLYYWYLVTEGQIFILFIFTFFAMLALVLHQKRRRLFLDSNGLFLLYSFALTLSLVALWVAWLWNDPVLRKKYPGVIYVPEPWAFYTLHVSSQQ
Described as above.

The target in test [1] is RlucII–Rab7A wild-type (UniProt P51149). The test is described as above.
The target of the next test is RlucII–Rab7A^S72A (UniProt P51149). Described as above.
For the next test, the target named is RlucII–Rab1a (UniProt P62820). The description is as above.
Another test concerns the target RlucII–Rab7A^Y183E (UniProt P51149). The description is as above.
Another test concerns the target RlucII–Rab7A^Y183F (UniProt P51149). The description is as above.
For test [2], the target named is RlucII–Rab7A wild-type (UniProt P51149). Description: FRET or BRET; BRET titration curves in live HEK293 cells, wild-type and TAK1^KO: constant RlucII–Rab7A, increasing Vps26A–GFP10; 48 h post transfection.
Test [3] has the same target. Description: FRET or BRET; BRET titration curves in live HeLa cells, wild-type and TBK1^KO: constant RlucII–Rab7A, increasing Vps26A–GFP10; 48 h post transfection.
Test [4] addresses endogenous Rab7A (human (endogenous; cell line not named, all cell lines of the paper are human)) (UniProt P51149). The test can be described thus: co-IP; co-immunoprecipitation with antibodies to endogenous NEK7 and Rab7A, each in turn.
Test [5] concerns the target endogenous NEK7 (human (endogenous; cell line not named, all cell lines of the paper are human)) (UniProt Q8TDX7). Described as above.

Consider “GFP10–NEK7 (from UniProt Q9ES74 1-302) (enzyme)”, for which the binding entry with RlucII–Rab7A^C205,207S and in the test with CLN6–RlucII was “no binding” throughout.
Regarding “PLEKHM1–GFP10 (from UniProt Q9Y4G2 1-1056)”, the binding entry with RlucII–Rab7A wild-type [1] was “binds”; in the test with RlucII–Rab7A^S72A, “binds”; with RlucII–Rab1a it was “no binding”.
In the case of RILP–GFP10 (from UniProt Q96NA2 1-401), the binding result in the test with RlucII–Rab1a was “no binding”.
With “Vps26A–GFP10 (from UniProt O75436 1-327)”, the binding result in the test with RlucII–Rab7A^Y183E is reported as “binds”; with RlucII–Rab7A^Y183F, “binds”; with RlucII–Rab1a, “no binding”; with RlucII–Rab7A wild-type [2] it was “binds”; with RlucII–Rab7A wild-type [3], “binds”.
Take “endogenous NEK7 (from UniProt Q8TDX7 1-302) (enzyme)”: the binding result in test [4] is “no binding”.
With “endogenous Rab7A (from UniProt P51149 1-207)”, in test [5], the binding result is on record as “no binding”.
